Source: the supplement of paper PMC4967469
A lower IC50 marks a more sensitive line; a fit beyond the top or the lowest dose is shown as a bound at that dose. The AUC spans the tested range (256-fold, ending at the top dose) of the same fit: 1 means no effect, lower means more sensitive. For part of these data: Any top dose called inferred was calculated from the reported fits. For part of these data: An entry number marks a drug with two screens in the source, which often give different values.

Tests used:
Test in all cases: Viability of human cancer cell lines after 72 h of drug (GDSC screen)
[1] = compound: CC(=O)O[C@@]12CO[C@@H]1C[C@H](O)[C@@]1(C)C(=O)[C@H](O)C3=C(C)[C@@H](OC(=O)[C@H](O)[C@@H](NC(=O)OC(C)(C)C)c4ccccc4)C[C@@](O)([C@@H](OC(=O)c4ccccc4)[C@H]21)C3(C)C [Docetaxel]; conditions: top dose 0.0125 µM
Description: (§1)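 Human cancer cell lines in 384-well plates, medium with 10% serum, drug for 72 h over a 256-fold dose range (nine 2-fold or five 4-fold steps up to the top dose). Adherent lines were fixed and stained with the nucleic acid dye Syto60, suspension lines read with resazurin; signal relative to control wells, capped at 0 and 100%. One two-parameter sigmoid per drug and line, fitted in a mixed model over all curves with the slope shared within a line.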

[2] = compound: COCC[n+]1c2c(n(Cc3cnccn3)c1C)C(=O)c1ccccc1C2=O [YM155]; conditions: top dose 5.12 µM
Description: as §1

[3] = compound: O=C(/C=C/c1cccc(S(=O)(=O)Nc2ccccc2)c1)NO [Belinostat]; conditions: top dose 20 µM; top dose inferred
Description: as §1

[4] = compound: C[C@]1(O)C[C@@H](c2nc(-c3ccc4ccc(-c5ccccc5)nc4c3)c3c(N)nccn32)C1 [OSI-906]; conditions: top dose 2.56 µM; top dose inferred
Description: as §1

[5] = compound: Cc1ccc(C(=O)N(CCCN)[C@@H](c2nc3cc(Cl)ccc3c(=O)n2Cc2ccccc2)C(C)C)cc1 [SB-715992]; conditions: top dose 0.128 µM; top dose inferred
Description: as §1

[6] = compound: COC(=O)[C@H](CCSC)NC(=O)c1ccc(NC[C@@H](N)CS)cc1-c1ccccc1 [FTI-277]; conditions: top dose 1.024 µM; top dose inferred
Description: as §1

[7] = compound: Cc1sc2c(c1C)C(c1ccc(Cl)cc1)=N[C@@H](CC(=O)OC(C)(C)C)c1nnc(C)n1-2 [JQ1]
Description: as §1

[8] = compound: CN1CCN(c2ccc([N+](=O)[O-])c3no[n+]([O-])c23)CC1 [NSC-207895]; conditions: top dose 20 µM; top dose inferred
Description: as §1

[9] = compound: c1ccc2c(CCNc3ccc(Nc4ccncc4)cc3)c[nH]c2c1 [JNJ-26854165]; conditions: top dose 10 µM
Description: as §1

[10] = top dose 1 µM, screen: GDSC drug entry 1218, top dose inferred
[11] = top dose 2.56 µM, screen: GDSC drug entry 163

Cell Line	AUC [1]	IC50 [1]	AUC [2]	IC50 [2]	AUC [3]	IC50 [3]	AUC [4]	IC50 [4]	AUC [5]	IC50 [5]	AUC [6]	IC50 [6]	AUC [7, 10]	IC50 [7, 10]	AUC [7, 11]	IC50 [7, 11]	AUC [8]	IC50 [8]	AUC [9]	IC50 [9]
MDA-MB-175-VII (breast, adherent)	0.945	> 0.0125 µM	0.427	0.198 µM	0.656	3.56 µM	0.946	> 2.56 µM	0.987	> 0.128 µM	0.985	> 1.02 µM	0.986	> 1 µM	0.908	> 2.56 µM	0.964	> 20 µM	0.984	> 10 µM
Mewo (melanoma, adherent)	0.815	0.00866 µM	0.106	< 0.02 µM	0.617	2.8 µM	0.981	> 2.56 µM	0.983	> 0.128 µM	0.977	> 1.02 µM	0.979	> 1 µM	0.96	> 2.56 µM	0.962	> 20 µM	0.856	> 10 µM
NCI-H2029 (small cell lung carcinoma, adherent)	0.976	> 0.0125 µM	0.465	0.259 µM	0.486	1.15 µM	0.98	> 2.56 µM	0.925	> 0.128 µM	0.982	> 1.02 µM	0.99	> 1 µM	0.941	> 2.56 µM	0.985	> 20 µM	0.949	> 10 µM
NCI-H2122 (lung adenocarcinoma, adherent)	0.695	0.00265 µM	0.439	0.22 µM	0.747	6.05 µM	0.547	0.213 µM	0.948	> 0.128 µM	0.942	> 1.02 µM	0.982	> 1 µM	0.756	0.826 µM	0.986	> 20 µM	0.919	> 10 µM
PA-TU-8988T (pancreas, adherent)	0.724	0.00339 µM	0.044	< 0.02 µM	0.635	2.96 µM	0.977	> 2.56 µM	0.731	0.0365 µM	0.983	> 1.02 µM	0.98	> 1 µM	0.703	0.6 µM	0.984	> 20 µM	0.849	7.58 µM
PANC-08-13 (pancreas, adherent)	0.866	> 0.0125 µM	0.092	< 0.02 µM	0.728	6.78 µM	0.633	0.414 µM	0.967	> 0.128 µM	0.97	> 1.02 µM	0.978	> 1 µM	0.7	0.693 µM	0.982	> 20 µM	0.902	> 10 µM
RMG-I (ovary, adherent)	0.919	> 0.0125 µM	0.068	< 0.02 µM	0.434	0.799 µM	0.98	> 2.56 µM	0.818	0.0877 µM	0.98	> 1.02 µM	0.981	> 1 µM	0.666	0.503 µM	0.954	> 20 µM		
